Assay results taken from paper PMC4336329 (PLoS ONE, 2015).
Screen size: about 310,000 compounds; about 14,000 (4.5%) showed an effect of 50% or more. The effect is printed as a negative number. The list shows a part of the results.

target: human ether-à-go-go-related gene (hERG) potassium channel (human, UniProt Q12809); experiment: primary screen, population patch clamp on CHO cells stably expressing hERG
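Further: peak tail current of the secondary pulse compared with the same well before compound.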

Chain of human ether-à-go-go-related gene (hERG) potassium channel (Q12809 whole entry, looked up): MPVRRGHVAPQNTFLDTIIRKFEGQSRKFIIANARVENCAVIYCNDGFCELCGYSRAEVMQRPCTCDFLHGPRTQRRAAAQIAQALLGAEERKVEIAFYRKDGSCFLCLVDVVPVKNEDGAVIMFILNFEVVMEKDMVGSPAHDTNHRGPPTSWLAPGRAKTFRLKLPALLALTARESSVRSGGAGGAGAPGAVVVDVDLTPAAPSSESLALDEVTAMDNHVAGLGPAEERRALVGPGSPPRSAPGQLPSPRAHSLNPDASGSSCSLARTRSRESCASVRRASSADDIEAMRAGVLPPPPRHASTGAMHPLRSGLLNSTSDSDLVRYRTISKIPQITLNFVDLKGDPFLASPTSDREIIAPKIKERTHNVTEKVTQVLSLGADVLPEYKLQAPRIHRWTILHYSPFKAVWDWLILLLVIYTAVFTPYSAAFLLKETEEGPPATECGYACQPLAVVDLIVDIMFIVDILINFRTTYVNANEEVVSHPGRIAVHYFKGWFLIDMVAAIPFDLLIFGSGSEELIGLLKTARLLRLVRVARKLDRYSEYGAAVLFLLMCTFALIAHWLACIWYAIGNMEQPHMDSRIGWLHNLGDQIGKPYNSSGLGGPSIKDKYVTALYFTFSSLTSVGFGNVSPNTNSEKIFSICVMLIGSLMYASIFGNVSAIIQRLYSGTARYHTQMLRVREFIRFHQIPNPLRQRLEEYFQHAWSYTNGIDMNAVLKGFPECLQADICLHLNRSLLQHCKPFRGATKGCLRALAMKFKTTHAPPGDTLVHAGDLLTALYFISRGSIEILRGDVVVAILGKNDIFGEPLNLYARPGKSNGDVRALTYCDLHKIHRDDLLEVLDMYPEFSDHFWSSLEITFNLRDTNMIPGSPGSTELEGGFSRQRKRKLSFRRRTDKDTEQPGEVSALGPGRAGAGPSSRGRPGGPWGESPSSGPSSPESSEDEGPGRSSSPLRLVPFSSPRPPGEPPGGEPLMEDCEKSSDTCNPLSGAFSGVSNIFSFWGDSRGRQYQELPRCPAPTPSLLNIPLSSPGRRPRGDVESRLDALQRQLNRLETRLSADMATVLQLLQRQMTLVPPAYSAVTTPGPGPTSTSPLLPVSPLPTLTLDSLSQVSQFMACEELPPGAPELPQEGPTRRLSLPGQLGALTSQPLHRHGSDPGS

Structure (SMILES) | hERG current change (%, negative = inhibition) at 10uM [%]
COc1cc(NS(=O)(=O)c2ccc(NC(=O)c3ccc(Cl)cc3Cl)cc2)ncn1 | -9.46
COc1ccccc1OCCCOc1ccc([N+](=O)[O-])cc1Cl | 3.35
Cc1cccc(C(=O)OCC(=O)NC(=O)NCc2ccccc2)c1 | -7.32
O=C(COC(=O)c1ccccc1[N+](=O)[O-])Nc1cccnc1Cl | 9.34
CC(=O)N1CC(C)Sc2ccc(S(=O)(=O)NCCc3ccccc3)cc21 (stereo not shown) | -0.777
CCC(C)(C)NC(=O)C(c1ccc(OC)cc1)N(C(=O)CCC(=O)Nc1cc(C)on1)c1ccc(F)cc1 (stereo not shown) | 15.7
COc1ccccc1NC(=O)CON=C(N)CC(=O)NC1CCCCC1 | -1.99
CN(CC(=O)Nc1cccc(F)c1)C(=O)CN1c2cccc3cccc(c23)S1(=O)=O | -2.66
CCCCNC(=S)NC(=O)c1ccc([N+](=O)[O-])cc1 | -40.4
Cc1cc(=O)[nH]c(SCC(=O)Nc2ccc(C(=O)O)cc2)n1 | 5.37
O=C(/C=C/c1ccccc1Cl)Nc1ccncc1 | -3.65
Cc1cccc(C)c1OCc1nnc2c3cnn(C)c3ncn12 | -25.2
CC(=O)c1cccc(NC(=O)N2CCC(C(=O)c3ccc(F)cc3)CC2)c1 | -28.1
COc1ccc(CN2CCn3nc(C(=O)NC4CC4)cc3C2=O)cc1 | 4.43
CCOc1ccc(NC(=O)CSc2nc3ccccc3c(=O)n2Cc2cccs2)cc1 | 13.6
CCOC(=O)c1cc2cc(-c3c(C(=O)OCC)oc4cc(O)cc(O)c4c3=O)ccc2o1 | -17.2
O=C(CSc1ccccc1C(=O)O)c1ccc(Cl)cc1 | 16.6
CCCCC1(CC)C(=O)NC(=O)NC1=Nc1ccc(OC)cc1 (stereo not shown) | -0.068
CN1c2ccccc2C(=O)/C(=C\Nc2ccc(F)cc2F)S1(=O)=O | 12.4
COc1cc(OC)c(OC)cc1CNC(=O)c1ccc(S(=O)(=O)N2CCCCC2)cc1 | -20.8
C=CCn1c(SCC(=O)N2CCN(c3ccc(F)cc3)CC2)nnc1-c1ccco1 | -70.2
COc1ccccc1N1CCN(C2CCCN(C(=O)c3ccoc3)C2)CC1 (stereo not shown) | -19.7
O=C1CC(=O)C(n2cncn2)C(c2cccc(Cl)c2)C1 (stereo not shown) | 15.6
COc1ccc2[nH]c(CN3CCC(n4nccc4NC(=O)C4CC4)CC3)c(C)c2c1 | -63.3
Cc1ccccc1OCC(=O)NC(Cc1c[nH]c2ccccc12)C(=O)O (stereo not shown) | 20.4
Nc1ccc(-c2nc3ncccc3o2)c(O)c1 | 8.03
CCc1ccc(/C=c2\s/c(=C\C(=O)C(C)(C)C)[nH]c2=O)cc1 | 15.2
CCCn1c(SCC(=O)Nc2nnc(C(C)C)s2)nc2c1c(=O)n(C)c(=O)n2C | 9.55

Structure (SMILES) | hERG current change (%, negative = inhibition) at 10uM [%]
COc1ccc(CCNc2nc(C)c(C(C)=O)s2)cc1OC | 21.6
O=C(O)C(=O)O.c1ccc(OCCN2CCOCC2)cc1 | 12
COC(=O)Nc1ccc2c(c1)ncn2C1CCCCC1 | -23.3
O=C1CCS/C(=N\N=C\c2ccc(Cl)cc2Cl)N1 | -16.5
Cc1ccc(OCc2nnc(NC(=O)c3ccco3)s2)c(C)c1 | 13.4
O=C(O)c1ccc(-c2nc(-c3ccc(Cl)cc3Cl)cs2)cc1 | 18.5
CN(C)S(=O)(=O)N1CCN(c2ccc([N+](=O)[O-])cc2)CC1 | -76.7
Cn1cc(Br)c(C(=O)NC2CCCCCC2)n1 | 2.74
CCN(CC)c1ccc(/C=C2/C(=O)NC(=O)N(Cc3ccco3)C2=O)cc1 | -25
Cc1cccc(OP(=O)(Nc2c(C)n(C)n(-c3ccccc3)c2=O)Oc2cccc(C)c2)c1 | -20.5
O=C(COC(=O)CN1C(=O)C2CCCCC2C1=O)NCc1ccc(Cl)cc1Cl (stereo not shown) | -2.1
O=C(CSc1nc2ccccc2c(=O)n1-c1ccccc1Cl)Nc1cccc(S(=O)(=O)N2CCOCC2)c1 | -6.76
Cc1cc(NC(=O)CSc2nc(N)c(NC(=O)c3ccccc3)c(=O)[nH]2)no1 | 19.9
CC(=O)Oc1ccccc1C(=O)N(C1CCCCC1)C1CCCCC1 | 15.3
CCOC(=O)C1=C(C)OC(N)=C(C#N)C1c1ccc(O)c(OC)c1 (stereo not shown) | 2.39
CCC1CCCCN1C(=O)CCc1nnc(Cc2cc(OC)ccc2OC)o1 (stereo not shown) | 11.9
O=[N+]([O-])c1ccc(CNc2ccc(Cl)cc2)s1 | -9.66
Cc1cccc(N2CCN(C(=S)c3ccccc3)CC2)c1 | 9.16
O=C(Nc1cccc(-c2ccc(N3CCCCC3)nn2)c1)c1ccc(Br)o1 | -12.4
COc1ccc2[nH]c3c(c2c1)CCN1C(=O)N([C@@H](C)C(=O)NCCc2ccc(F)cc2)C(=O)[C@]31C | -17.9
CCn1c(SCC(=O)N(C)CC(=O)Nc2ccc(OC)cc2)nnc1-c1ccco1 | 6.1
Cc1ccc2c(CC(=O)NNC(=O)c3ccccc3)coc2c1 | 1.23
COc1ccccc1NS(=O)(=O)c1ccc(N/N=C(\C)C(C)C)c([N+](=O)[O-])c1 | 9.29
CC(=O)Oc1ccc2c(=O)c(/C=N/c3cc(=O)[nH]c(=S)[nH]3)coc2c1 | -5.74
CCOC(=O)c1c(NC(=O)CSc2nnc(C)c(=O)[nH]2)sc(C)c1-c1ccc(C)cc1 | -2.13
CCOC(=O)c1c(S(=O)(=O)Nc2ccccc2OCC)c(C)n(C)c1C | -5.04
NC(=O)NC(=O)COC(=O)CN1C(=O)C2CCCCC2C1=O (stereo not shown) | 1.18
